These results are taken from ChEMBL document CHEMBL1156829.

Where “and” joins values, the source holds several entries; their conditions need not be identical. Equal entries are not always repeated. The full ranking holds about 5,400 compounds; the median of “IFI” is about 2, and the highest 2% start at about 22. This is one part of the list.

The assay is described as follows: NOVARTIS: Inhibition Frequency Index (IFI) - the number of HTS assays where a compound showed > 50% inhibition/induction, expressed as a percentage of the number of assays in which the compound was tested. It is filed as functional.
As to `Cc1cc(F)ccc1NC(=O)C(C)n1c2ccccc2c2nc(=O)cc(C)n21` (stereo not given), the IFI came to 0%.

Molecule `COc1ccc2c(c1OC)C(=O)N1c3ccccc3N=C(c3ccc(I)cc3)CC21` (stereo not given) showed an IFI of 0.725%.

In turn, `COc1ccc(C2N=C(N)N=C(N)N2c2ccc(C)cc2)cc1` (stereo not given) showed an IFI of 1.37%.

For the molecule `NCC(c1ccc(F)cc1)c1ccc(F)cc1`, the IFI is 0%.

In the case of `Oc1ccccc1-c1nc(-c2ccccc2)nc(-c2ccc(Br)cc2)n1`, the IFI came to 0%.

As for `CC(C)(C)c1ncccc1OC(=O)C12CC3CC(CC(C3)C1)C2`, the IFI is 3.15%.

With `CCOC(=O)c1c(NC(C)=O)sc2c1CCN(C(C)C)C2`, the IFI is 0%.

`COc1cc(/C=C(\C#N)c2nc3ccccc3[nH]2)ccc1OCc1ccc(Cl)cc1` returned an IFI of 0%.

Regarding `C[n+]1cccc2ccc3cccnc3c21`, the IFI stood at 1.39%.

With `CCN1CCN(c2cc(C)c3cc(NC(=O)/C=C/c4ccccc4Cl)ccc3n2)CC1`, the IFI stood at 8.2%.

As for `CCn1c(SCC(=O)NCCc2ccccc2)nc2sc3c(c2c1=O)CCN(C)C3`, the IFI amounted to 8%.

On to `Cc1nc(-c2ccccc2)nc(C(=O)N2CCN(C(=O)/C=C/c3ccccc3)C(C)C2)c1C(=O)OC(C)C` (stereo not given), for which the IFI was determined as 1.89%.

For the molecule `O=C(C1CCC1)N1CCN(c2ccccn2)CC1`, the IFI amounted to 0%.

The molecule `Cc1ccc(N2C(=O)C3C(C2=O)C2(c4ccccc4)C(=O)C3(c3ccccc3)C(c3ccccc3)=C2c2ccccc2)c([N+](=O)[O-])c1` (stereo not given) displayed an IFI of 0%.

In turn, `CCCCCN1/C(=C\C=C\c2n(CCCCC)c3cc(Cl)c(Cl)cc3[n+]2CC)N(CC)c2cc(Cl)c(Cl)cc21` gave an IFI of 0%.

In the case of `CCCCCC(=O)N(CCN(C)C)C(CC)c1nc2ccccc2c(=O)n1-c1ccc(F)cc1` (stereo not given), the IFI was determined as 0%.

Turning to `COc1cc(C(=O)NCc2ccco2)ccc1OC1CCN(CC(c2ccccc2)c2ccccc2)CC1`, the IFI turned out to be 1.45%.

With `O=C(CCl)NCCCN(C(=O)Nc1ccc(Cl)c(Cl)c1)c1ccccc1`, the IFI was 4.17%.

In turn, `CCN1CCN(Cc2cc(=O)oc3cc(-c4ccccc4)c(O)cc23)CC1` showed an IFI of 0%.

Molecule `CN(C)c1ccc(/C=C/c2cc(/C=C/c3ccc(N(C)C)cc3)[n+]3ccccc3n2)cc1` gave an IFI of 21.4%.

In the case of `CCCCCc1ccc(OCCOCC[n+]2ccccc2)c(CCCCC)c1`, the IFI came to 4.54%.

In turn, `CCOC(=O)C1=C(C)N(CCNc2ncc(C(F)(F)F)cc2Cl)C(=O)CC1` had an IFI of 0%.

Take `CCNc1nc(NC(C)C)nc(NC(N)NOC)n1` (stereo not given): the IFI is 0%.

Molecule `O=C(NC(c1ccccc1)c1ccccc1)N(Cc1ccccc1)CC(O)CN(CCN1CCOCC1)S(=O)(=O)Cc1ccccc1` (stereo not given) showed an IFI of 1.94%.

Take `O=C1CC(c2ccccc2)CC2=C1C(c1ccccc1[N+](=O)[O-])Nc1ccccc1N2` (stereo not given): the IFI amounted to 1.07%.

`c1ccc2cc3c(N4CCN(CCN5CCN(c6ccnc7cc8ccccc8cc67)CC5)CC4)ccnc3cc2c1` came in with an IFI of 8.2%.

In turn, `OC(COc1ccccc1CNCCN1CCCC1)CN1CCc2ccccc2C1` (stereo not given) gave an IFI of 7.69%.

Molecule `Nc1c(C(=O)Nc2ccc(C3=NCCN3)cc2)cccc1C(=O)Nc1ccc(C2=NCCN2)cc1` returned an IFI of 7.41%.

Consider `CC(=O)Nc1ccc(-c2nc(-c3ccc(Oc4ccc(-c5[nH]c(-c6ccc(NC(C)=O)cc6)nc5-c5ccccc5)cc4)cc3)c(-c3ccccc3)[nH]2)cc1`, for which the IFI came out at 1.54%.

For `NC(Cc1ccccc1)C(=O)N1CCn2c(nc(-c3ccccc3)c2Nc2ccc3c(c2)OCO3)C1` (stereo not given), the IFI was 4.11%.

Turning to `O=C(Nc1ccc2c3c(cccc13)CC2)c1cccc2ccccc12`, the IFI came out at 0%.

Consider `O=C(/C=C/c1ccccc1Cl)Nc1ccc(Oc2ccc3ccccc3c2Cl)c(Cl)c1`, for which the IFI worked out at 0%.

For `N#Cc1c2c(c(NCc3ccccn3)n3c1nc1ccccc13)CCCC2`, the IFI is 4.76%.

`O=C(Cc1ccccc1)NC(c1ccccc1)c1ccc2cccnc2c1O` (stereo not given) yielded an IFI of 13%.

`CCOc1ccccc1-n1c(N)c(C(=O)Nc2ccc(C)cc2)sc1=S` yielded an IFI of 1.16%.

In the case of `C[n+]1c2n(c3ccccc31)N=C(c1ccccc1)CS2`, the IFI is 3.7%.

As to `CCN(CC)CCCNC(=S)N(CCc1cccc(C)c1)Cc1cc2cc(OC)c(OC)cc2[nH]c1=O`, the IFI worked out at 11.4%.

`CCC(c1nc2ccccc2c(=O)n1-c1ccccc1OC)N(CCc1ccccc1)C(=O)Nc1ccccc1OC` (stereo not given): the IFI worked out at 0.943%.

The molecule `Cc1nonc1C(=O)NN=Cc1ccc([N+](=O)[O-])o1` displayed an IFI of 7.14%.

The molecule `Clc1ccc2c(c1)c(-c1ccccc1)nc1nnnn12` displayed an IFI of 3.08%.

Consider `O=C(Cc1cccs1)N1CCC(n2c(Cc3ccc(F)cc3)nc3cccnc32)CC1`, for which the IFI was found to be 5%.

Regarding `CC1=C(C(=O)OC2CCCC2)C(c2ccccc2F)C2=C(CC(c3ccccc3)CC2=O)N1` (stereo not given), the IFI amounted to 3.49%.

`Cc1ccc2c(C)nc(Nc3nc(C)cc(-c4ccccc4)n3)nc2c1` had an IFI of 15.4%.

Turning to `CC[n+]1ccccc1C=Cc1ccc(N(C)C)cc1`, the IFI is 6.57% and 5.88%.

Molecule `COC(=O)C1=C(C)NC2=C(C(=O)CC(c3ccccc3Cl)C2)C1c1ccc(OC)c(OC)c1` (stereo not given) registered an IFI of 3.61%.

The molecule `C#CC(C)(C)NS(=O)(=O)c1cc(-c2nnc(Nc3cccc(C)c3)c3ccccc23)ccc1C` had an IFI of 0%.

`O=C(Nc1cccc(Cl)c1)c1cc2ccccc2cc1O` returned an IFI of 9.62%.

For `CCCCN1C(=O)N(c2ccccc2C)C(C)(O)CC1(C)C` (stereo not given), the IFI stood at 0%.

Turning to `Cc1cc(=O)oc2c1ccc1oc(C(=O)c3ccccc3)c(C)c12`, the IFI worked out at 5.5%.

Molecule `C=CCSc1nc2sc3c(c2c(=O)n1-c1ccccc1)CCN(C)C3` showed an IFI of 7.55%.

Take `O=C(NCc1ccccc1)C(c1ccc(F)cc1)N(Cc1ccco1)C(=O)c1cnccn1` (stereo not given): the IFI stood at 0%.

The molecule `Cc1cc(C)n(-c2ncc(-c3ccc([N+](=O)[O-])cc3)cn2)n1` showed an IFI of 7.69%.

The molecule `COc1ccc(C(=O)C2CC2c2ccc(Cl)cc2)cc1` (stereo not given) came in with an IFI of 3.8%.

As for `CC[n+]1c(/C=C/c2ccc(Cl)cc2)ccc2ccccc21`, the IFI worked out at 4.84%.

`COc1ccc(N2C(=O)C3C(C2=O)C2(c4ccccc4)C(=O)C3(c3ccccc3)C(c3ccc4c(c3)OCO4)=C2c2ccc3c(c2)OCO3)c([N+](=O)[O-])c1` (stereo not given) showed an IFI of 0%.

On to `Cc1c(C(=O)Nc2ccccc2)sc2ncn(Cc3ccccc3Cl)c(=O)c12`, for which the IFI came out at 0%.

For the molecule `Cc1c(C)c(C)c(CNC(=S)NN)c(C)c1C`, the IFI was 2.02%.

Consider `CC(=O)Nc1cc([N+](=O)[O-])ccc1N1CCOCC1`, for which the IFI was 0%.

As for `O=C(NC(=S)Nc1ccc(NC(=O)c2cccs2)cc1)c1ccco1`, the IFI came out at 7.69%.

With `COc1ccccc1C1CC(c2ccccc2)=NN1C(=O)c1ccccc1` (stereo not given), the IFI came out at 2.3%.

`COc1ccc(N=Nc2nc3ccc(Br)cc3n2C)cc1`: the IFI was determined as 9.26%.

In turn, `CC(=NNC(N)=S)C(C)=NNC(N)=S` showed an IFI of 1.12%.

For the molecule `Cc1c(Br)c([N+](=O)[O-])nn1CC(=O)NC(C)c1ccccc1` (stereo not given), the IFI stood at 0%.

Molecule `Cc1cc(N2CCC(C)CC2)nc2ccc(NC(=O)c3ccc([N+](=O)[O-])o3)cc12` gave an IFI of 0%.

Molecule `COc1ccc(-c2c[n+](-c3ccccc3)c3n2CCS3)cc1` came in with an IFI of 7.69%.

Consider `Cc1c(C#N)c2ccccc2n1CC(=O)Nc1ccc(Br)cc1`, for which the IFI is 3.17%.

With `COc1ccc(/C=C/c2ccc3ccccc3[n+]2C)cc1OC`, the IFI was 0%.

As to `CCCCOc1ccc(C2C3CCCC=C3C(C#N)=C(N)C2(C#N)C#N)cc1` (stereo not given), the IFI is 0%.

Molecule `COc1ccccc1C1SCCN1C(=O)Nc1ccc(Cl)c(Cl)c1` (stereo not given) displayed an IFI of 0%.

`Cc1ccc(NC(=O)N(CCN(C)C)Cc2cc3cc4c(cc3[nH]c2=O)OCCO4)cc1` had an IFI of 6.35%.

For the molecule `Cc1cccc(OCC(=O)NCCNC2=NS(=O)(=O)c3ccccc32)c1`, the IFI was determined as 0%.

With `CCOC(=O)C1CCN(C(c2cc3cc(OC)c(OC)cc3[nH]c2=O)c2nnnn2Cc2ccccc2)CC1` (stereo not given), the IFI is 1.03%.

Molecule `COC1=CC(=O)c2c(ccc3c(OC)c(O)ccc23)C1=O` yielded an IFI of 12.3%.

`CCCOc1ccc(NC(=O)c2ccco2)cc1` had an IFI of 6.06%.

Take `O=C(NCc1ccc(Cl)cc1)C(=O)NCc1ccccn1`: the IFI is 1.54%.

Consider `Nc1ccc(N2CCCCCC2)cc1`, for which the IFI was found to be 5.46%.

Take `Oc1ccc(-c2ccccc2)cc1CNCCCN1CCOCC1`: the IFI is 0.87%.

On to `CN1CCCC1CCNc1ncc(C(=O)NCCc2ccccc2)c(NCC2CCCCC2)n1` (stereo not given), for which the IFI came out at 0.962%.

Molecule `O=C(CSc1nc2ccccc2[nH]1)Nc1ccc2c(c1)OCO2` showed an IFI of 1.18%.

In the case of `COc1cncc(-c2cncc(N3CCN(c4ccncc4)CC3)n2)c1`, the IFI was 0%.

`CCOC(=O)C1=C(C)N=c2sc(=Cc3ccccc3OC(C)=O)c(=O)n2C1c1ccc(OC)cc1` (stereo not given) showed an IFI of 7.06%.

Molecule `Cc1cccc(NC(=O)c2ccc(N3CC4CC(C3)c3cccc(=O)n3C4)c(NC(=O)Cc3c(F)cccc3Cl)c2)n1` (stereo not given) displayed an IFI of 0%.

As to `O=S(=O)(c1ccc(Cl)cc1)N1CCN(C(=S)NCc2ccco2)CC1`, the IFI came to 0%.

In the case of `COc1ccc(-n2cc(-c3ccc(C)cc3)nc2SCC(=O)Nc2ccc(C)cc2)cc1`, the IFI was 0%.

`CCCN1CCC(N2CCCC(c3[nH]ncc3-c3cccc(C(F)(F)F)c3)C2)CC1` (stereo not given) came in with an IFI of 1.92%.

As to `Cc1ccc2[nH]c3c(NCCN(C)C)ncnc3c2c1`, the IFI is 9.8%.

As to `CC1=C(CC(=O)c2cccs2)C(=O)c2ccccc2C1=O`, the IFI worked out at 6.58%.

In turn, `COc1cc(C=NNc2nc3cc(Cl)ccc3[nH]2)cc(OC)c1OC` registered an IFI of 0%.

`Cc1cccc(-c2nc3cc(NC(=S)NC(=O)c4ccc(Cl)cc4)ccc3o2)c1`: the IFI came to 0%.

`CC[N+](C)(CC)CCSc1nc2ccccc2c(=S)n1-c1ccc(OC)cc1`: the IFI was 0%.

In turn, `c1ccc(Oc2cccc(CN3CCc4nc(N5CCCCC5)sc4C3)c2)cc1` registered an IFI of 18.3%.

For the molecule `CC(=O)c1ccc2c3c(onc13)-c1ccccc1C2=O`, the IFI came to 0%.

Consider `CN(C(=O)CCNC(=O)Cn1cnc2ccccc2c1=O)C1CCCCC1`, for which the IFI is 0%.

For the molecule `O=C(Oc1ccccc1N1C(=O)C2C3C=CC(C3)C2C1=O)c1ccc([N+](=O)[O-])cc1` (stereo not given), the IFI came to 0%.

Turning to `CCCn1c(-c2cccc(Br)c2)nc2ccccc21`, the IFI was found to be 0%.

Turning to `COc1cc(NC(C)CCCN(Cc2ccccc2OC)C(=O)Nc2cccc(F)c2)c2ncccc2c1` (stereo not given), the IFI turned out to be 4.81%.

For the molecule `CCN1C(=O)N(CCC(C)C)C2(CCN(Cc3cc(Cl)ccc3O)CC2)C1=O`, the IFI turned out to be 3.7%.

In turn, `CCCN1CCC(N2C[C@@H](NC3CCCCCC3)C[C@H]2C(=O)NCCc2ccc3c(c2)OCO3)CC1` yielded an IFI of 2%.

Turning to `COCCOC(=O)C1=C(C)NC2=C(C(=O)CC(c3ccc(OC)c(OC)c3)C2)C1c1ccccc1C` (stereo not given), the IFI came to 7.59%.

On to `CCOC(=O)CN(C)Cc1ccc2c(NC(=O)c3ccc(C)s3)c(C(=O)OC)sc2n1`, for which the IFI was determined as 1.72%.
